Experimental data as given in US5807535A, “Metal complexes of hydroxyaryl containing aminocarboxylic acid chelating agents” (Australian Nuclear Science & Technology Organisation, priority 1992, dated 1998).
Further values from the same series stand in other lists.

Assay: Biodistribution of 67Ga complexes in mice
Format: in vivo, balb/c mice
Procedure: To ligand (50 μL, 10 mg/mL, 0.2 M NaOAc, […]) was added ^67 Ga citrate (18.5 MBq) and the resultant mixture diluted to 1 mL (0.2 M NaOAc, pH 7). The pH was adjusted to 12 with 1 M NaOH (20 μL) and heated at 40° C. for 40 min. The final volume was adjusted (to 5 mL) with saline and sterilised by filtering through a 0.22 μm filter.
Each animal was injected via tail vein with ^67 Ga complex (100 μL, ~3.7×10^5 Bq). Animals were sacrificed at various time intervals (5 animals per time point/6 time points). Data are illustrated in FIG. 26-30 and in Tables 13-17.
Each ^67 Ga-ligand complex has been evaluated in balb/c mice. […] (see FIG. 26-30).

CC(C)(C)c1ccc(O)c(NC(=O)CN(CCN(CC(=O)O)CC(=O)Nc2cc(C(C)(C)C)ccc2O)CC(=O)O)c1 [Compound 4]
biodistribution bladder (1 min): 0.14 % ID | biodistribution blood (1 min): 9.95 % ID | biodistribution caecum (1 min): 0.19 % ID | biodistribution colon (1 min): 0.32 % ID | biodistribution duodenum (1 min): 0.09 % ID | biodistribution heart (1 min): 0.27 % ID | biodistribution ileum (1 min): 0.20 % ID | biodistribution jejunum (1 min): 1.16 % ID | biodistribution lungs (1 min): 0.64 % ID | biodistribution ovaries (1 min): 0.13 % ID | biodistribution pancreas (1 min): 0.17 % ID | biodistribution salivary gl (1 min): 0.12 % ID | biodistribution stomach GL (1 min): 0.14 % ID | biodistribution stomach SQ (1 min): 0.06 % ID | biodistribution tail (1 min): 0.00 % ID | biodistribution bladder (3 min): 0.28 % ID | biodistribution blood (3 min): 3.06 % ID | biodistribution caecum (3 min): 0.15 % ID | biodistribution colon (3 min): 0.11 % ID | biodistribution duodenum (3 min): 0.25 % ID | biodistribution heart (3 min): 0.08 % ID | biodistribution ileum (3 min): 0.080 % ID | biodistribution jejunum (3 min): 1.17 % ID | biodistribution lungs (3 min): 0.26 % ID | biodistribution ovaries (3 min): 0.12 % ID | biodistribution pancreas (3 min): 0.05 % ID | biodistribution salivary gl (3 min): 0.06 % ID | biodistribution stomach GL (3 min): 0.06 % ID | biodistribution stomach SQ (3 min): 0.03 % ID | biodistribution tail (3 min): 0.88 % ID | biodistribution bladder (5 min): 0.14 % ID | biodistribution blood (5 min): 2.28 % ID | biodistribution caecum (5 min): 0.06 % ID | biodistribution colon (5 min): 0.14 % ID | biodistribution duodenum (5 min): 0.44 % ID | biodistribution heart (5 min): 0.05 % ID | biodistribution ileum (5 min): 0.05 % ID | biodistribution jejunum (5 min): 1.19 % ID | biodistribution lungs (5 min): 0.18 % ID | biodistribution ovaries (5 min): 0.10 % ID | biodistribution pancreas (5 min): 0.10 % ID | biodistribution salivary gl (5 min): 0.03 % ID | biodistribution stomach GL (5 min): 0.47 % ID | biodistribution stomach SQ (5 min): 0.07 % ID | biodistribution tail (5 min): 0.73 % ID | biodistribution bladder (10 min): 0.41 % ID | biodistribution blood (10 min): 0.27 % ID | biodistribution caecum (10 min): 0.09 % ID | biodistribution colon (10 min): 0.06 % ID | biodistribution duodenum (10 min): 0.36 % ID | biodistribution heart (10 min): 0.01 % ID | biodistribution ileum (10 min): 0.06 % ID | biodistribution jejunum (10 min): 5.43 % ID | biodistribution lungs (10 min): 0.03 % ID | biodistribution ovaries (10 min): 0.02 % ID | biodistribution pancreas (10 min): 0.03 % ID | biodistribution salivary gl (10 min): 0.01 % ID | biodistribution stomach GL (10 min): 0.19 % ID | biodistribution stomach SQ (10 min): 0.04 % ID | biodistribution tail (10 min): 0.57 % ID | biodistribution bladder (30 min): 0.00 % ID | biodistribution blood (30 min): 0.13 % ID | biodistribution caecum (30 min): 0.49 % ID | biodistribution colon (30 min): 0.28 % ID | biodistribution duodenum (30 min): 0.53 % ID | biodistribution heart (30 min): 0.00 % ID | biodistribution ileum (30 min): 01.52 % ID | biodistribution jejunum (30 min): 0.61 % ID | biodistribution lungs (30 min): 0.01 % ID | biodistribution ovaries (30 min): 0.00 % ID | biodistribution pancreas (30 min): 0.00 % ID | biodistribution salivary gl (30 min): 0.00 % ID | biodistribution stomach GL (30 min): 0.02 % ID | biodistribution stomach SQ (30 min): 0.01 % ID | biodistribution tail (30 min): 0.14 % ID | biodistribution bladder (120 min): 0.00 % ID | biodistribution blood (120 min): 0.10 % ID | biodistribution bone (120 min): 0.15 % ID | biodistribution caecum (120 min): 1.19 % ID | biodistribution colon (120 min): 0.56 % ID | biodistribution duodenum (120 min): 0.04 % ID | biodistribution heart (120 min): 0.00 % ID | biodistribution ileum (120 min): 0.12 % ID | biodistribution jejunum (120 min): 0.20 % ID | biodistribution lungs (120 min): 0.01 % ID | biodistribution ovaries (120 min): 0.00 % ID | biodistribution pancreas (120 min): 0.01 % ID | biodistribution salivary gl (120 min): 0.00 % ID | biodistribution stomach GL (120 min): 0.02 % ID | biodistribution stomach SQ (120 min): 0.21 % ID | biodistribution tail (120 min): 0.11 % ID
